# According to the BET-seq Pho4 binding data (Le et al. 2018):
# This is one part of the list. Values were computed here from the reads of four pooled replicates and scatter widely.
# Target: T1, Pho4 (S. cerevisiae) (UniProt P07270)
# T1 sequence: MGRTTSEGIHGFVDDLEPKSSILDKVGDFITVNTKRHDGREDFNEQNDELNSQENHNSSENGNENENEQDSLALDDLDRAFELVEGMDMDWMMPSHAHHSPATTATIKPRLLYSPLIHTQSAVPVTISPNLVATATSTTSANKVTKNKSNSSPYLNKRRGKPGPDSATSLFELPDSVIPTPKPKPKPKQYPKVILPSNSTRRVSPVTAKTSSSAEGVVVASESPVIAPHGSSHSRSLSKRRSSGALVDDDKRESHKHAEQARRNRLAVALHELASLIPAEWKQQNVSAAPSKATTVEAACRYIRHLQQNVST
# Assay: relative binding free energy (BET-seq); higher = weaker binding
# Details: reference: library average
row,Sequence,relative binding free energy [kcal/mol]
1,TAAGGCACGTGGGGCG,-0.24
2,TTGTACACGTGTAGAA,0.27
3,ATGGGCACGTGGTAGC,-0.17
4,TTTTGCACGTGTAAAT,0.2
5,GAGGGCACGTGAGTAC,0.16
6,ATCATCACGTGTATGG,0.11
7,CTGTGCACGTGAGTGG,0.19
8,CTTGGCACGTGTGTTA,-0.1
9,CAGAGCACGTGGTTTT,0.02
10,TCGATCACGTGATGGT,0.29
11,CATTTCACGTGGGGAG,0.18
12,TGGTCCACGTGGGGTT,-0.14
13,AGTTACACGTGAAATT,0.29
14,CCTATCACGTGGGGTT,0
15,TTAGTCACGTGCTAGC,0.2
16,GGTGTCACGTGGTATT,0.12
17,TTGGCCACGTGTTTGC,-0.12
18,GAGTACACGTGGAGGG,0.13
19,CTTAGCACGTGGGTGT,-0.15
20,ATTAACACGTGGTTAA,-0.03
21,TTGCTCACGTGGGTGT,0.04
22,TTGGCCACGTGGGTTT,-0.09
23,TTATCCACGTGTTGGG,-0.02

row,Sequence,relative binding free energy [kcal/mol]
1,TAGGACACGTGCTAGG,0.06
2,GAGGTCACGTGGGGGA,0.01
3,TGGTACACGTGCGGAA,0.09
4,GGGTTCACGTGGGCAA,0.17
5,ATGTTCACGTGGTGTG,0.23
6,GGAGTCACGTGGTACA,0.04
7,GGAATCACGTGAGTGA,0.18
8,CTGTTCACGTGTTGGA,0.34
9,CTAAGCACGTGGAGTG,-0.15
10,ATGGTCACGTGCGATA,0.11
11,GCGGTCACGTGTGGTA,0.35
12,TTGGCCACGTGATATG,0.01
13,GTTATCACGTGTAGTT,0.21
14,TCGGTCACGTGTACGG,0.04
15,GGTGTCACGTGTGAAT,0.21
16,TGAGTCACGTGACTTG,0.17
17,AGAATCACGTGGTTGA,0.09
18,TTCATCACGTGGGCTG,0.01
19,TGGCTCACGTGGCGGT,0.18
20,TTTGACACGTGGATGA,0.04
21,GGTGTCACGTGTATGT,0.13
22,ATCGTCACGTGGAGTA,0.07
23,GAATACACGTGAAGGT,0.41

row,Sequence,relative binding free energy [kcal/mol]
1,ATTCTCACGTGATGGT,0.28
2,GAGGTCACGTGTAGAA,0.31
3,TGAAGCACGTGGTGTC,-0.11
4,AAAGGCACGTGGTTGC,-0.1
5,ACAGGCACGTGTTGTG,-0.14
6,GTTGGCACGTGTTGTG,0
7,AACGGCACGTGGGAGT,-0.15
8,TACTGCACGTGAAGGT,0.13
9,CTATACACGTGGGTTT,-0.15
10,TTCGTCACGTGGGTCG,-0.11
11,AGTGCCACGTGTAGGG,-0.13
12,GTTTTCACGTGAGTTG,0.45
13,CGGGCCACGTGGGGGT,-0.28
14,TGTGTCACGTGTGTTA,0.06
15,GTGTGCACGTGCAGGA,0.06
16,TATTGCACGTGATAAG,0.13
17,TTCGGCACGTGGGTGA,-0.13
18,AGGAGCACGTGTCGGG,-0.1
19,AGTGGCACGTGCTTCG,0.04
20,TTAAACACGTGGGAAA,0.07
21,GGAGTCACGTGTTATT,0.16
22,AAAAGCACGTGATGGT,-0.06
23,CGTGGCACGTGCGGGT,-0.32

row,Sequence,relative binding free energy [kcal/mol]
1,TAGTACACGTGGGGGC,-0.11
2,GTGGTCACGTGGCGGG,0.17
3,TATAGCACGTGGATGT,-0.07
4,GGTCGCACGTGGAGAT,0.01
5,GAGGGCACGTGATAGT,-0.05
6,TATTACACGTGCTTTA,0.01
7,TGCTACACGTGATTTA,0.38
8,GCTGGCACGTGAGGAT,0.05
9,GGGATCACGTGTAAGG,0.21
10,GTGGACACGTGATTAG,0.24
11,CGTTTCACGTGTTGGC,0.4
12,GTGGTCACGTGATACT,0.4
13,GTTATCACGTGGGTGC,-0.09
14,TTCGGCACGTGGGTAT,-0.14
15,TGTTTCACGTGGCCTA,0.24
16,AGGGTCACGTGGCGTT,0.15
17,TTCTTCACGTGTTATG,0.18
18,TTTGACACGTGTTCTC,0.21
19,TTCGTCACGTGTGCTG,0.13
20,TGGAGCACGTGTCTGG,-0.07
21,TATGGCACGTGGCGTA,-0.1
22,TTGCGCACGTGATATG,0.11
23,GGTGTCACGTGTAGAC,0.28

row,Sequence,relative binding free energy [kcal/mol]
1,TTGAACACGTGCAAGG,0.15
2,TGGTACACGTGCGTAT,0.01
3,AGGAACACGTGTAGGG,0.12
4,TTTTGCACGTGACGTA,0.02
5,TTCGGCACGTGGCTGT,-0.12
6,TTAGTCACGTGTTCAT,0.16
7,TATGTCACGTGAGTTC,0.35
8,TATTACACGTGTGGGA,0.17
9,TTAGGCACGTGGTTTC,-0.14
10,ATTTTCACGTGATTAC,0.27
11,TGTGCCACGTGGTGAT,-0.25
12,AACGGCACGTGCGGGT,-0.1
13,ATTTGCACGTGTTTTC,0.09
14,GGGGCCACGTGTGGAT,0.08
15,GAGGTCACGTGTTGCG,0.13
16,GGTTGCACGTGAGCCG,0.24
17,TGGTCCACGTGGTCGT,-0.02
18,GGTCGCACGTGGTAAT,0.02
19,GGGCACACGTGTGCTG,0.1
20,GGGCGCACGTGAAGGA,0.29
21,GTCGTCACGTGAGTGG,0.2
22,TTTGACACGTGACTGG,0.09
23,TTATACACGTGATTTA,0.1
